# The list shows a part of the results.
# B1: chr11:29608197:29608198:+_ENSMUSG00000020458_ENSMUST00000102843|mus_mus|FALSE|FALSE (ssRNA)
# RNA: GGGAGUUCUACAGUCCGACGAUCUGGAAUUUCAUUAGAUGCAGCAUCUUUUGUAAUAUGUAAAUUGGGCUGAAAAGACUCUAAAUAUGGCUUUCCUACCUCCUGAGGUGAAGCACUAAGUCUCUCCUUAUGUUUGUGUUGUGUCAACAGAGGAUUGAGCAUCA
# B2: chr3:105540709:105540710:-_ENSMUSG00000068798_ENSMUST00000090678|mus_hu|FALSE|FALSE (ssRNA)
# RNA: GGGAGUUCUACAGUCCGACGAUCUCUGACCAGGUCAUAAAAUAUCUCAUUAACAUUGAUCUUUGACUUUGCAGAAGAUUCUAAAAAGGCACAGUUACACCACUGUCUUGCUAAAUUCUGGCCCUGCUCUUUGCCAACUACUCGCAACAGAGGAUUGAGCAUCA
# B3: chr2:151796264:151796265:-_ENSMUSG00000027459_ENSMUST00000062047|mus_mus|FALSE|FALSE (ssRNA)
# RNA: GGGAGUUCUACAGUCCGACGAUCUGUUCGGCUGGCCUCAGAUGGGGACACAGGACUAUCACACAAGUUGAUGAGGCUGCUAAGGAUGUCGAGGUCCAGUUGGGGCCGGCGGCCAGAACAGGGCAGGACUCGGCGACUGGGUGUCAACAGAGGAUUGAGCAUCA
# B4: chr6:109703465:109703466:-_ENSG00000135535_ENST00000310786|hu_mus|FALSE|FALSE (ssRNA)
# RNA: GGGAGUUCUACAGUCCGACGAUCUUCUGGUAGCACGGUGGGCAUUUGCGUCGUCGGGACCACUUUGGUGGUCGUGGUCGGCACCUCGGUCACGUUGGGAGCCAGGGUGGUGAUGUUGGGCUGCGCGGCCGAGACGCAGAGCACCAACAGAGGAUUGAGCAUCA
# B5: chr4:120733482:120733483:-_ENSMUSG00000043207_ENSMUST00000058754|mus_hu|FALSE|FALSE (ssRNA)
# RNA: GGGAGUUCUACAGUCCGACGAUCGUUUUAAGAAAUGAAUUAUUAAAAUCAUUUUUAAAAUGACAUAUUAAAUGUAUUUAAAUCUGGGCUUUUCUGUACUUAAUUUUUCUUCUAAAAAAAAGUUUAAAAACAUCAAGAGCUGGACAACAGAGGAUUGAGCAUCA
# B6: chr12:8716970:8716971:+_ENSMUSG00000020594_ENSMUST00000111122|mus_mus|motif|central (ssRNA)
# RNA: GGGAGUUCUACAGUCCGACGAUCUGGAGAAGCCUUGCCUUUUUGAUCUCCUUUCUCAGGUCCAUCUGUUUCAGCAUCUCGGGUACCAAAAGUUCCCUUCCUAAAUCGAGAAUCCAAUUUAUCAGCAGGAGAGGAACUUAAUACCAACAGAGGAUUGAGCAUCA
# B7: chr1:168153195:168153196:+_ENSG00000143155_ENST00000367833|hu_hu|motif|central (ssRNA)
# RNA: GGGAGUUCUACAGUCCGACGAUCUAAAACGUUGUCUCCAAACAUCAUUUCAGGGAGAGAUGGCAUAUGUAAUUCAUCGGCGGAUUUCUCCACAUCCGCCGACUUCAUGAUGUGGGUCUUGGACGCCGUCAGCUUCCAGGGCCCCAACAGAGGAUUGAGCAUCA
# B8: chr16:15112699:15112700:+_ENSG00000179889_ENST00000396410|hu_hu|FALSE|FALSE (ssRNA)
# RNA: GGGAGUUCUACAGUCCGACGAUCCCACAGAGGCAGGGCACGGAGUUUGUCUGUGGGCUUAUUUGAUGUAAGACCAGCAACUAAAGUCAAGGCAGGGUCAUCGUGUUUAUACAGUGUCACCGCAGGAACAGCUGGCAAACCCAGCAACAGAGGAUUGAGCAUCA
# B9: chr1:235599081:235599082:+_ENSG00000116957_ENST00000366601|hu_hu|motif|central (ssRNA)
# RNA: GGGAGUUCUACAGUCCGACGAUCCAGGUGGGCUAUCAGAUACAGCUGAUUUUCAUCAAUUAAUUGAUUAGAGGAAAGAUCGGAUAACUUGACUGUCUGGAGAACAUCUGUUGGCCUUUCGGAAAUGAAAAUGUUGUUAGACUCCAACAGAGGAUUGAGCAUCA
# B10: chr5:6374528:6374529:-_ENSG00000133398_ENST00000255764|hu_mus|FALSE|FALSE (ssRNA)
# RNA: GGGAGUUCUACAGUCCGACGAUCAGCUAGAGCCCUCUCCAGGCAUUCUUUGGUGUAGAGCUGGGGAUUCCGACCUUGAUCAAUGUAUUCAAAAACUUCCAGAGGCACCGUGAUAUCGUGCAGCUGCUGUCUGCAUUUAUCUAUCAACAGAGGAUUGAGCAUCA
# B11: chr2:61275951:61275952:+_ENSG00000162928_ENST00000295030|hu_mus|FALSE|FALSE (ssRNA)
# RNA: GGGAGUUCUACAGUCCGACGAUCGCUUUCAUUCAACUGCAAAUUAAUUUCUCUGUAAGAAAUGAUUUUUUAAAAUACUCUAAAAUAUUGUUCACCUGCCCACAAACAUGAAACACAUCAAAGAUCUUGUUUGUCUCCAUUUUUCAACAGAGGAUUGAGCAUCA
# B12: chr11:100882373:100882374:+_ENSMUSG00000019302_ENSMUST00000044721|mus_mus|mus_mus_mus_hu_True|1_108 (ssRNA)
# RNA: GGGAGUUCUACAGUCCGACGAUCUUCCUGGUUAGUGUUGAUUUCCUUCAGUUCAUUUUCAAUCUUCUCAAAAUUGGCCUCUAAGUCAAUCAUGUCCCGGGGGAAGGGAACCUCUGGGUUUUCACCGGUGUCCAUAAUUGGGAUCAACAGAGGAUUGAGCAUCA
# B13: 80927136_80929697_1061_3pUTR_ENSMUSG00000034818_ENSMUST00000118763|mouse|control|control (ssRNA)
# RNA: GGGAGUUCUACAGUCCGACGAUCGGGCGCGAUGGCCGCGGUGGGAUACAUGGCUGUGUACUGCUGGACUCCGGAGAAGGCAGGAUGGAGGGUCUCUGCCACAGUGGGGCUCUGAGCUGGGUAGGGCACAAGGCCAUUGGCAUACAACAGAGGAUUGAGCAUCA
# B14: chr3:184040909:184040910:+_ENSG00000114867_ENST00000411531|hu_hu|FALSE|FALSE (ssRNA)
# RNA: GGGAGUUCUACAGUCCGACGAUCGCCAAGGUUGGCAAAGGAUGGAGUGAAGUCUGGGCCACAAUUUAUGCCUUGUAGUCUAGUGGGAUCCAGUGGCCGCAGUGGUGUUUUAUUGGCCUUGUCCAGCACCACGUCACUGAUAUGCAACAGAGGAUUGAGCAUCA
# Target: T1, UNK ZnF1-3 (human, UniProt Q9C0B0 31-174)
# T1 sequence: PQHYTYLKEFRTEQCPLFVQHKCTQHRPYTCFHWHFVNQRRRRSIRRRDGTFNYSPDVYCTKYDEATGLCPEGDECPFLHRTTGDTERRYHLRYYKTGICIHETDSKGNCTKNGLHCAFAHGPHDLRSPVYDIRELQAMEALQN
# Experiment: nsRBNS (natural sequence RNA bind-n-seq); RBNS binding buffer (assumed for nsRBNS): 25 mM Tris pH 7.5, 150 mM KCl, 3 mM MgCl2, 0.01% Triton X-100, 500 ug/ml BSA, 20 U/ml SUPERase-In, 4 C; UNK is unkempt and MSI1 is Musashi-1; names of the RNAs are library labels; protein concentration not given here; high values mean tight binding
row,Binder,binding signal [enrichment R]
1,B1,1.73
2,B2,1.02
3,B3,0.722
4,B4,0.574
5,B5,1.75
6,B6,0.92
7,B7,0.536
8,B8,1.09
9,B9,1.44
10,B10,1.61
11,B11,1.46
12,B12,0.771
13,B13,1.21
14,B14,0.788
